Patent US7335484B2, “Retinoid metabolizing protein” (Queen's University at Kingston, priority 1996, dated 2008)

Legend:
[1] = test system: P450RAI mRNA in MCF7 cells; conditions: for P450RAI message level: 1 μM all-trans retinoic acid
[2] = test system: P450RAI message in MCF7 cells; assay: Inhibition of P450RAI induction by 4-HPR, northern blot in MCF7 cells; type: cell-based, human; conditions: 1 μM RA, 12 hours of incubation
Method: Experiments to determine the effect of 4-HPR on the induction of P450RAI were thus carried out. FIG. 17 illustrates the ability of the synthetic retinoid, 4-HPR to inhibit the induction of P450RAI by RA. MCF7 cells were grown in culture in minimal essential medium (MEM) (Gibco) supplemented with 10% fetal calf serum, insulin (0.01 mg/mL), MEM non-essential amino acids (as directed by the manufacturer—Gibco), sodium pyruvate (500 nM), L-glutamine (2 mM) gentamycin (10 μg/mL), penicillin (5 μg/mL), streptomycin (5 μg/mL), and fungizone (200 ng/mL). MCF7 cells cultured in parallel were treated for 12 hours with: 10 μM 4HPR; 1 μM 4HPR; 1 μM RA; 1 μM RA and 10 μM 4-HPR; or 1 μM RA and 1 μM 4-HPR. At the end of the 12 hour treatment, total RNA was extracted from the cells using TRIzol reagent (as outlined by the manufacturer—Gibco). P450RAI message in the total RNA preparations was analyzed by northern blot hybridization. The blot was reprobed with a probe corresponding to the GAPDH cDNA to control for equivalent loading of RNA in each lane of the blot.

| SMILES | P450RAI message level between 24 and 48 hours [1] | induction of P450RAI message ([1]; compared with retinoic acid) | P450RAI message level ([1]; after 3 hours) | P450RAI message level ([1]; following 12 hours of exposure) | induction of P450RAI message [2] |
| --- | --- | --- | --- | --- | --- |
| CC1(C)CCC(C)(C)c2cc(C(=O)Nc3ccc(C(=O)O)cc3)ccc21 [Am580] | remains high | levels comparable to those observed following treatment with retinoic acid |  |  |  |
| CC1=C(/C=C/C(C)=C/C=C/C(C)=C/C(=O)O)C(C)(C)CCC1 [RA, all-trans retinoic acid] |  |  | high levels of P450RAI message | the message declines sharply | marked induction of P450RAI message |

Read-outs that look alike come from different tables or passages of the source.
